# The full ranking holds about 81,000 sequences; the median of “one-hybrid fitness for binding NBS DNA” is about -0.1, and the highest 2% start at about 0.36. The list shows a part of the results.
# B1: Caulobacter ParB omega fusion; a variant is named by its letters at X, in order, B8GW30 (parent)
# chain: MESVVVGEPGMSEGRRGLGRGLSALLGEVDAAPAQAPGEQLGGSREAPIEILQRNPDQPRRTFREEDLEDLSNSIREKGVLQPILVRPSPDTAGEYQIVAGERAWRAAQRAGLKTVPIMVRELDDLAVLEIGIIENVQRADLNVLEEALSYKVLMEKFERTQENIAQTIGKSXSHVANXMRLLXLPDEVQSYLVSGELTAXHARAIAAAADPVALAKQIIEGGLSVRETEALARKAPNLSAGKSKGGRPPRVKDTDTQALESDLSSVLGLDVSIDHRGSTGTLTITYATLEQLDDLCNRLTRGI
# Variants of: B1
# Experiment: one-hybrid fitness for binding NBS DNA (the Noc-binding site; scaled: cognate 1, non-cognate 0); higher = stronger binding
# Details: with NBS DNA site
# In short: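 Fitness is the rescaled log change in variant-to-wild-type read ratio, measured by Illumina sequencing of plasmids before and after bacterial one-hybrid selection. The scale puts cognate at 1 and non-cognate at 0. Selection of Caulobacter ParB libraries, four specificity codons randomised, took place in E. coli USO with a HIS3 reporter, site 19 bp from the promoter, over 48 hours at 37°C on M9-minus-histidine with 0.1 mM IPTG and 5 mM 3-AT.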
row,Variant,one-hybrid fitness for binding NBS DNA
1,EYPS,≤ 0.2
2,MPYC,≤ 0.2
3,TTME,≤ 0.2
4,RHMM,≤ 0.2
5,PHPP,≤ 0.2
6,VDMI,≤ 0.2
7,QQAH,0.284
8,RWCW,≤ 0.2
9,IKPI,≤ 0.2
10,IKSE,≤ 0.2
11,SVVY,≤ 0.2
12,LRFG,≤ 0.2
13,MQDN,≤ 0.2
14,MSPD,≤ 0.2
15,TRHL,≤ 0.2
16,GEHT,≤ 0.2
17,RLGR,0.443
18,PRIY,≤ 0.2
19,ITPS,≤ 0.2
20,KMIT,≤ 0.2
21,RHDV,≤ 0.2
22,NNQG,≤ 0.2
23,DGWM,≤ 0.2
24,FFTN,≤ 0.2
25,SNLV,≤ 0.2

row,Variant,one-hybrid fitness for binding NBS DNA
1,DQAI,≤ 0.2
2,NIQT,≤ 0.2
3,QKVV,≤ 0.2
4,ISTQ,≤ 0.2
5,QHPR,0.248
6,SSVL,≤ 0.2
7,SSMS,≤ 0.2
8,RFPC,≤ 0.2
9,GPYS,≤ 0.2
10,KAGW,≤ 0.2
11,CMYM,≤ 0.2
12,VEWS,≤ 0.2
13,FVLF,≤ 0.2
14,QGSS,≤ 0.2
15,RKFD,≤ 0.2
16,RIIK,≤ 0.2
17,EVQI,≤ 0.2
18,TRLT,0.219
19,WHQG,≤ 0.2
20,DHPT,≤ 0.2
21,QCCR,0.599
22,ENDM,≤ 0.2
23,RMPC,≤ 0.2
24,FRWC,≤ 0.2
25,TRMY,≤ 0.2

row,Variant,one-hybrid fitness for binding NBS DNA
1,VSQK,≤ 0.2
2,PHFS,≤ 0.2
3,GTEL,≤ 0.2
4,AYRH,≤ 0.2
5,IGHD,≤ 0.2
6,AVRG,≤ 0.2
7,GRVH,≤ 0.2
8,PGDT,≤ 0.2
9,IKAF,≤ 0.2
10,LSQR,≤ 0.2
11,VPYN,≤ 0.2
12,PPSL,≤ 0.2
13,WSRD,≤ 0.2
14,TLCI,≤ 0.2
15,QGYR,≤ 0.2
16,YRRF,≤ 0.2
17,RKTT,0.666
18,RIAP,≤ 0.2
19,NAEM,≤ 0.2
20,GSMQ,≤ 0.2
21,DVIS,≤ 0.2
22,PDHP,≤ 0.2
23,QILA,≤ 0.2
24,PIPC,≤ 0.2
25,QIAR,0.397

row,Variant,one-hybrid fitness for binding NBS DNA
1,NTHE,≤ 0.2
2,NKLF,≤ 0.2
3,RANS,0.484
4,RDRG,≤ 0.2
5,FGEY,≤ 0.2
6,GQAC,≤ 0.2
7,NDHY,≤ 0.2
8,VHDR,≤ 0.2
9,RAMP,≤ 0.2
10,KANF,≤ 0.2
11,KCSY,≤ 0.2
12,TRAE,0.251
13,HRTE,≤ 0.2
14,HEQL,≤ 0.2
15,CTSH,≤ 0.2
16,FDSS,≤ 0.2
17,TFQE,≤ 0.2
18,LEVS,≤ 0.2
19,RNIS,≤ 0.2
20,SSHY,≤ 0.2
21,TTQF,≤ 0.2
22,ANQE,≤ 0.2
23,PNCS,≤ 0.2
24,LCHM,≤ 0.2
25,HETY,≤ 0.2

row,Variant,one-hybrid fitness for binding NBS DNA
1,EEKS,≤ 0.2
2,NFKC,≤ 0.2
3,DLDC,≤ 0.2
4,SSGW,≤ 0.2
5,GPRA,≤ 0.2
6,LPTI,≤ 0.2
7,DDSG,≤ 0.2
8,CPGM,≤ 0.2
9,CYTA,≤ 0.2
10,MENS,≤ 0.2
11,TNRM,≤ 0.2
12,QWHT,≤ 0.2
13,HNTC,≤ 0.2
14,ATHT,≤ 0.2
15,YMTC,≤ 0.2
16,CKAS,≤ 0.2
17,CQES,≤ 0.2
18,PYSE,≤ 0.2
19,LCTW,≤ 0.2
20,IHLL,≤ 0.2
21,NGAS,≤ 0.2
22,QHQH,≤ 0.2
23,SESC,≤ 0.2
24,SKKC,≤ 0.2
25,HAKW,≤ 0.2

row,Variant,one-hybrid fitness for binding NBS DNA
1,FKPS,≤ 0.2
2,ALHC,≤ 0.2
3,DNES,≤ 0.2
4,WMTP,≤ 0.2
5,GNMR,≤ 0.2
6,YYLC,≤ 0.2
7,ADCT,≤ 0.2
8,LNER,≤ 0.2
9,REAT,≤ 0.2
10,RQVK,≤ 0.2
11,IGTM,≤ 0.2
12,ERMS,≤ 0.2
13,VKRH,≤ 0.2
14,ADIG,≤ 0.2
15,AVDA,≤ 0.2
16,SASA,≤ 0.2
17,METV,≤ 0.2
18,DNRA,≤ 0.2
19,TRET,≤ 0.2
20,DNGT,≤ 0.2
21,TCDP,≤ 0.2
22,LGLY,≤ 0.2
23,NPST,≤ 0.2
24,QLFY,≤ 0.2
25,SLRE,≤ 0.2

row,Variant,one-hybrid fitness for binding NBS DNA
1,CQQT,≤ 0.2
2,MHRS,≤ 0.2
3,RSQV,≤ 0.2
4,WEHT,≤ 0.2
5,HSQM,≤ 0.2
6,HPLF,≤ 0.2
7,LKDR,≤ 0.2
8,CALH,≤ 0.2
9,GMDV,≤ 0.2
10,TPRY,≤ 0.2
11,SIPD,≤ 0.2
12,NHQR,≤ 0.2
13,NTCL,≤ 0.2
14,RKCE,≤ 0.2
15,SLAM,≤ 0.2
16,SLTN,≤ 0.2
17,ISRI,≤ 0.2
18,TTER,≤ 0.2
19,EYAC,≤ 0.2
20,HDLM,≤ 0.2
21,YKRW,≤ 0.2
22,APPG,≤ 0.2
23,TRVI,≤ 0.2
24,RMIF,≤ 0.2
25,KAWS,≤ 0.2

row,Variant,one-hybrid fitness for binding NBS DNA
1,RIWC,≤ 0.2
2,LFNC,≤ 0.2
3,YEVP,≤ 0.2
4,QIVN,≤ 0.2
5,SHRV,≤ 0.2
6,SMHN,≤ 0.2
7,LIYC,≤ 0.2
8,NDTI,≤ 0.2
9,QVTF,≤ 0.2
10,QREL,≤ 0.2
11,VDFS,≤ 0.2
12,EGVG,≤ 0.2
13,HQSL,≤ 0.2
14,DFSH,≤ 0.2
15,ITPM,≤ 0.2
16,RMRA,0.409
17,HWGA,≤ 0.2
18,NTMG,≤ 0.2
19,PIVG,≤ 0.2
20,KLNI,≤ 0.2
